Experimental data published in the RNAGym collection of RNA variant scans (doi:10.7554/elife.90254).
The source gives no read counts; variants with many changes may rest on few reads.

B1: OR4K15 (parent)
chain: GUUAACGGUCAUAGGCCAUGGAAACUAGGAGCACCAUUUCGCUGCCAGUGAAGAAAUGAACAAAGAAAAUCUGGGCCAGGCAGGCAUCAAAAGAAAUAGUCUUGCGCUCAACCAGAAAGUCUGUAAUCAUUUUAAGGGUA

Variants of: B1
Experiment: self-cleavage, relative activity (ratio to wild type); higher = more cleavage; in vitro, sequencing; the parent is a self-cleaving ribozyme

Which self-cleavage does the source give for U9C U37C A98C here?
Its self-cleavage is 1.58.

With U9C A67G U108C as the variant, how does the self-cleavage read?
The self-cleavage was 0.02.

With G8A U124C U133C as the variant, how does the self-cleavage read?
The self-cleavage was 0.04.

Which self-cleavage does the source give for U9C U19C A63U here?
Its self-cleavage is 1.74.

For U9C U37C A82G A91C U131A, which self-cleavage is on record?
The self-cleavage was 0.58.

With U9C G48C A52G as the variant, how does the self-cleavage read?
The self-cleavage was 0.94.

With U9C U37C U39G U49C A92U A94G A118G as the variant, how does the self-cleavage read?
Its self-cleavage is 0.43.

For U9C A60U A68G A69U U108A, which self-cleavage is on record?
The self-cleavage was 0.02.

For U9C U43C A69G, which self-cleavage is on record?
Its self-cleavage is 1.66.

For G8A A82G U87C, which self-cleavage is on record?
The self-cleavage was 0.56.

With U9A U57C A118G as the variant, how does the self-cleavage read?
The self-cleavage was 0.59.

Which self-cleavage does the source give for U9C A11G U19C A36G A52G U102C U108C U120C here?
The self-cleavage was 0.02.

With U9C A22G A47G A94G A129G G137U as the variant, how does the self-cleavage read?
The self-cleavage was 1.03.

Which self-cleavage does the source give for U9C U39A A63G A78G here?
The self-cleavage was 0.33.

With G8C A56G A62U as the variant, how does the self-cleavage read?
The self-cleavage was 2.32.

With U9C U19C A27G C46U G115A U130C as the variant, how does the self-cleavage read?
Its self-cleavage is 0.02.

Which self-cleavage does the source give for U9C A52G A55G U97C U103C here?
The self-cleavage was 0.22.

With U9C U26C U127A as the variant, how does the self-cleavage read?
The self-cleavage was 2.08.

Which self-cleavage does the source give for U9A A67G U100A here?
The self-cleavage was 0.75.

For U9C G29U A126U, which self-cleavage is on record?
Its self-cleavage is 1.35.

For U9C A23G A30G U37C A82U U130C, which self-cleavage is on record?
The self-cleavage was 0.12.

With U9C A22G A30U A68G A98U U122C as the variant, how does the self-cleavage read?
Its self-cleavage is 1.24.

For U9A U26C A78U A91G C105U, which self-cleavage is on record?
The self-cleavage was 0.02.

Which self-cleavage does the source give for U9C C88U A110U here?
Its self-cleavage is 2.43.

Which self-cleavage does the source give for G8A U39C A62G C128U here?
The self-cleavage was 1.23.

With U9A U38C U87C C113U U132C U139C as the variant, how does the self-cleavage read?
The self-cleavage was 0.05.

For U9C A24G A52G A59G A67G, which self-cleavage is on record?
Its self-cleavage is 1.69.

For G8A A33G U103C A117U U120A, which self-cleavage is on record?
Its self-cleavage is 0.61.

For U9C A66U A86G A95U, which self-cleavage is on record?
Its self-cleavage is 0.56.

With G8A A59G A117G as the variant, how does the self-cleavage read?
The self-cleavage was 1.75.

With U9C U37C A82G C107U as the variant, how does the self-cleavage read?
Its self-cleavage is 0.07.

Which self-cleavage does the source give for U9C A22G A94G U127C here?
Its self-cleavage is 0.67.

For U9A A51G U70C A96G U120G, which self-cleavage is on record?
Its self-cleavage is 0.3.

With U9C U37C U38C A111G as the variant, how does the self-cleavage read?
Its self-cleavage is 0.1.

Which self-cleavage does the source give for U9C A23G U43C A89U A92G here?
The self-cleavage was 1.14.

For U9A A78G A92G, which self-cleavage is on record?
Its self-cleavage is 0.26.

With U9C U19A A52G A90G U102C U133C as the variant, how does the self-cleavage read?
Its self-cleavage is 1.97.

Which self-cleavage does the source give for U9C U19C A24G A64G G84U here?
The self-cleavage was 0.8.

For U9C G14A U108A, which self-cleavage is on record?
Its self-cleavage is 0.03.

With U9C C42G A54G A69G as the variant, how does the self-cleavage read?
Its self-cleavage is 1.04.

For U9A A54G A91G, which self-cleavage is on record?
The self-cleavage was 1.24.

For G8A A33G A64U U72A, which self-cleavage is on record?
Its self-cleavage is 0.21.

Which self-cleavage does the source give for G8C U9C A64G here?
Its self-cleavage is 1.77.

With U9C U38C U43C A51G U87C A96G U97C U127C as the variant, how does the self-cleavage read?
The self-cleavage was 1.08.

For U9C U39C A82G U87C, which self-cleavage is on record?
The self-cleavage was 0.35.

For U9C A18U U122A, which self-cleavage is on record?
Its self-cleavage is 1.55.

Which self-cleavage does the source give for G8A U39C A47G A98U here?
Its self-cleavage is 1.43.

With U9A G58A A63G A92G U97C as the variant, how does the self-cleavage read?
The self-cleavage was 0.66.

For U9C A22G A36G U37C A59G A114G U132C, which self-cleavage is on record?
Its self-cleavage is 0.2.

For U9A A56G U57C A66U U122C, which self-cleavage is on record?
The self-cleavage was 0.44.

With U9C A54G U124C as the variant, how does the self-cleavage read?
The self-cleavage was 0.44.

With U9C U72A A116G as the variant, how does the self-cleavage read?
Its self-cleavage is 0.13.

Which self-cleavage does the source give for U9A U12C A66U A68G A95G here?
Its self-cleavage is 0.84.

With U9C A86G U131C as the variant, how does the self-cleavage read?
Its self-cleavage is 1.83.

Which self-cleavage does the source give for U9A A33G A47G U49C here?
Its self-cleavage is 0.36.

For U9C A54U A135G, which self-cleavage is on record?
Its self-cleavage is 2.05.

For U9C A24G A67G, which self-cleavage is on record?
Its self-cleavage is 1.1.

Which self-cleavage does the source give for U9C U12C A23G A33U A63U G65U G79A U131C here?
The self-cleavage was 0.29.

For G8C U9C A56G A91U U132C, which self-cleavage is on record?
The self-cleavage was 1.72.

For U9C U37G A92U A98G U122C, which self-cleavage is on record?
The self-cleavage was 0.

With U9C A18U A60G U133C as the variant, how does the self-cleavage read?
Its self-cleavage is 0.78.

Which self-cleavage does the source give for U9C G29U U43C A98G here?
The self-cleavage was 0.36.

With U9C U57C A92G as the variant, how does the self-cleavage read?
Its self-cleavage is 1.52.

Which self-cleavage does the source give for U9C A23G A27G A89U here?
The self-cleavage was 0.78.

With U9A U19C A95G U108C A118G A125U as the variant, how does the self-cleavage read?
The self-cleavage was 0.

Which self-cleavage does the source give for U9C A36U A56G here?
Its self-cleavage is 1.18.

Which self-cleavage does the source give for U9A G29U A51G A59G A82G A96G A98G A110G here?
The self-cleavage was 0.

For U9C A33G U87C, which self-cleavage is on record?
The self-cleavage was 0.37.

With U9C A56G C105A as the variant, how does the self-cleavage read?
The self-cleavage was 0.07.

With U9C U39A A59G A89U G123U U127C as the variant, how does the self-cleavage read?
Its self-cleavage is 1.52.

With U9A U124C U131G as the variant, how does the self-cleavage read?
The self-cleavage was 0.18.

With G8A A30G A47G as the variant, how does the self-cleavage read?
The self-cleavage was 1.58.

For U9C A89G A98C, which self-cleavage is on record?
Its self-cleavage is 1.18.

For U9A A111U U120C U124A, which self-cleavage is on record?
The self-cleavage was 0.03.

With U9C A30G U57C A68G as the variant, how does the self-cleavage read?
Its self-cleavage is 1.13.

For G8A U43A A56G U130C, which self-cleavage is on record?
Its self-cleavage is 2.47.

Which self-cleavage does the source give for U9C A47G A59G A78G A92U U122A here?
Its self-cleavage is 0.1.

For U9C A68G A117G U130C, which self-cleavage is on record?
Its self-cleavage is 1.24.

With U9C A33G A52G A63G A140G as the variant, how does the self-cleavage read?
Its self-cleavage is 1.87.

For U9C A54G U102C, which self-cleavage is on record?
The self-cleavage was 1.43.

With U9A A30G A67U U97C as the variant, how does the self-cleavage read?
The self-cleavage was 1.05.

With U9C C17U U37C U108C as the variant, how does the self-cleavage read?
The self-cleavage was 0.05.

For U9C U37C A86U, which self-cleavage is on record?
Its self-cleavage is 0.63.
